Measurements taken from the supplement of paper PMC8728848.
The other results are listed elsewhere or left out.

Tests used:
Experiment in all cases: glycan array binding signal (z-score within array); higher = stronger binding
Settings in all cases: glycan notation: IUPAC condensed, linker removed
Gal(a1-3)Gal(b1-3)GlcNAc = target: Gal(a1-3)Gal(b1-3)GlcNAc
Method in brief: (§1)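 The binding signal is a Z-score computed within each array and averaged over linkers. Arrays of the same protein sequence at different concentrations or buffers were also averaged together. Data originate from 3228 arrays in the Consortium for Functional Glycomics database, kept only where the protein sequence was available.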

[1] = target: Gal(a1-3)Gal(b1-3)GlcNAc(b1-2)Man
Method in brief: as §1

[2] = target: Gal(a1-3)Gal(b1-3)GlcNAc(b1-2)Man(a1-3)[Gal(a1-3)Gal(b1-3)GlcNAc(b1-2)Man(a1-6)]Man(b1-4)GlcNAc(b1-4)GlcNAc
Method in brief: as §1

[3] = target: Gal(a1-3)Gal(b1-3)GlcNAc(b1-3)GalNAc
Method in brief: as §1

[4] = target: Gal(a1-3)Gal(b1-3)GlcNAc(b1-6)GalNAc
Method in brief: as §1

[5] = target: Gal(a1-3)Gal(b1-3)[Fuc(a1-4)]GlcNAc(b1-2)Man(a1-3)[Gal(a1-3)Gal(b1-3)[Fuc(a1-4)]GlcNAc(b1-2)Man(a1-6)]Man(b1-4)GlcNAc(b1-4)GlcNAc
Method in brief: as §1

Gal(a1-3)Gal(b1-4)Glc = target: Gal(a1-3)Gal(b1-4)Glc
Method in brief: as §1

Gal(a1-3)Gal(b1-4)GlcNAc = target: Gal(a1-3)Gal(b1-4)GlcNAc
Method in brief: as §1

[6] = target: Gal(a1-3)Gal(b1-4)GlcNAc(b1-2)Man
Method in brief: as §1

[7] = target: Gal(a1-3)Gal(b1-4)GlcNAc(b1-2)Man(a1-3)[Gal(a1-3)Gal(b1-4)GlcNAc(b1-2)Man(a1-6)]Man(b1-4)GlcNAc(b1-4)GlcNAc
Method in brief: as §1

[8] = target: Gal(a1-3)Gal(b1-4)GlcNAc(b1-3)GalNAc
Method in brief: as §1

[9] = target: Gal(a1-3)Gal(b1-4)GlcNAc(b1-6)GalNAc
Method in brief: as §1

[10] = target: Gal(a1-3)Gal(b1-4)[Fuc(a1-3)]GlcNAc
Method in brief: as §1

[11] = target: Gal(a1-3)Gal(b1-4)[Fuc(a1-3)]GlcNAc(b1-2)Man(a1-3)[Gal(a1-3)Gal(b1-4)[Fuc(a1-3)]GlcNAc(b1-2)Man(a1-6)]Man(b1-4)GlcNAc(b1-4)GlcNAc
Method in brief: as §1

Gal(a1-3)GalNAc = target: Gal(a1-3)GalNAc
Method in brief: as §1

[12] = target: Gal(a1-3)[Gal(a1-4)]Gal(b1-4)GlcNAc
Method in brief: as §1

[13] = target: Gal(a1-4)Gal(b1-3)GlcNAc(b1-2)Man(a1-3)[Gal(a1-4)Gal(b1-3)GlcNAc(b1-2)Man(a1-6)]Man(b1-4)GlcNAc(b1-4)GlcNAc
Method in brief: as §1

Gal(a1-4)Gal(b1-4)Glc = target: Gal(a1-4)Gal(b1-4)Glc
Method in brief: as §1

Gal(a1-4)Gal(b1-4)GlcNAc = target: Gal(a1-4)Gal(b1-4)GlcNAc
Method in brief: as §1

[14] = target: Gal(a1-4)Gal(b1-4)GlcNAc(b1-2)Man(a1-3)[Gal(a1-4)Gal(b1-4)GlcNAc(b1-2)Man(a1-6)]Man(b1-4)GlcNAc(b1-4)GlcNAc
Method in brief: as §1

[15] = target: Gal(a1-4)Gal(b1-4)GlcNAc(b1-3)Gal(b1-4)Glc
Method in brief: as §1

Gal(a1-4)GlcNAc = target: Gal(a1-4)GlcNAc
Method in brief: as §1

Gal(a1-6)Glc = target: Gal(a1-6)Glc
Method in brief: as §1

Gal(b1-2)Gal = target: Gal(b1-2)Gal
Method in brief: as §1

Gal(b1-3)Gal = target: Gal(b1-3)Gal
Method in brief: as §1

Gal(b1-3)Gal(b1-4)GlcNAc = target: Gal(b1-3)Gal(b1-4)GlcNAc
Method in brief: as §1

Gal(b1-3)GalNAc = target: Gal(b1-3)GalNAc
Method in brief: as §1

[16] = target: Gal(b1-3)GalNAc(a1-3)[Fuc(a1-2)]Gal(b1-4)Glc
Method in brief: as §1

[17] = target: Gal(b1-3)GalNAc(a1-3)[Fuc(a1-2)]Gal(b1-4)GlcNAc
Method in brief: as §1

Gal(b1-3)GalNAc(b1-3)Gal = target: Gal(b1-3)GalNAc(b1-3)Gal
Method in brief: as §1

[18] = target: Gal(b1-3)GalNAc(b1-3)Gal(a1-4)Gal(b1-4)Glc
Method in brief: as §1

[19] = target: Gal(b1-3)GalNAc(b1-4)Gal(b1-4)Glc
Method in brief: as §1

[20] = target: Gal(b1-3)GalNAc(b1-4)[Neu5Ac(a2-3)]Gal(b1-4)Glc
Method in brief: as §1

Gal(b1-3)GlcNAc = target: Gal(b1-3)GlcNAc
Method in brief: as §1

[21] = target: Gal(b1-3)GlcNAc(a1-3)Gal(b1-4)GlcNAc
Method in brief: as §1

[22] = target: Gal(b1-3)GlcNAc(a1-6)Gal(b1-4)GlcNAc
Method in brief: as §1

Gal(b1-3)GlcNAc(b1-2)Man = target: Gal(b1-3)GlcNAc(b1-2)Man
Method in brief: as §1

[23] = target: Gal(b1-3)GlcNAc(b1-2)Man(a1-3)[Gal(b1-3)GlcNAc(b1-2)Man(a1-6)]Man(b1-4)GlcNAc(b1-4)GlcNAc
Method in brief: as §1

B1: Cohesin-marm-DC-ASGPR-CRD (protein)
chain: LDITSHHHHHHDDLDAVRIKVDTVNAKPGDTVRIPVRFSGIPSKGIANCDFVYSYDPNVLEIIEIEPGDIIVDPNPDKSFDTAVYPDRKIIVFLFAEDSGTGAYAITKDGVFATIVAKVKEGAPNGLSVIKFVEVGGFANNDLVEQKTQFFDGGVNVGDTTEPATPTTPVTTPTTTDDLDAASCPINWVEHQGSCYWFSRSGKTWPEAERYCQLENTHLVVINSREEQNFVQAHLGSAYTWMGLSDPEGVWKWVDGTDYSSGFQNWKPGQPDDWQGHGLGGGEDCAHFHPDGRWNDDVCQRSYHWVCEAGLTQASQDSH
- glycan array binding signal (z-score) (Gal(a1-3)Gal(b1-3)GlcNAc): 0.082
- glycan array binding signal (z-score) [1]: -0.433
- glycan array binding signal (z-score) [2]: -0.346
- glycan array binding signal (z-score) [3]: -0.415
- glycan array binding signal (z-score) [4]: 2.92
- glycan array binding signal (z-score) [5]: -0.156
- glycan array binding signal (z-score) (Gal(a1-3)Gal(b1-4)Glc): -0.398
- glycan array binding signal (z-score) (Gal(a1-3)Gal(b1-4)GlcNAc): -0.421
- glycan array binding signal (z-score) [6]: -0.444
- glycan array binding signal (z-score) [7]: -0.185
- glycan array binding signal (z-score) [8]: -0.443
- glycan array binding signal (z-score) [9]: 2.82
- glycan array binding signal (z-score) [10]: -0.378
- glycan array binding signal (z-score) [11]: -0.38
- glycan array binding signal (z-score) (Gal(a1-3)GalNAc): 0.125
- glycan array binding signal (z-score) [12]: -0.411
- glycan array binding signal (z-score) [13]: -0.341
- glycan array binding signal (z-score) (Gal(a1-4)Gal(b1-4)Glc): -0.372
- glycan array binding signal (z-score) (Gal(a1-4)Gal(b1-4)GlcNAc): -0.435
- glycan array binding signal (z-score) [14]: -0.425
- glycan array binding signal (z-score) [15]: -0.448
- glycan array binding signal (z-score) (Gal(a1-4)GlcNAc): -0.402
- glycan array binding signal (z-score) (Gal(a1-6)Glc): -0.426
- glycan array binding signal (z-score) (Gal(b1-2)Gal): -0.074
- glycan array binding signal (z-score) (Gal(b1-3)Gal): -0.431
- glycan array binding signal (z-score) (Gal(b1-3)Gal(b1-4)GlcNAc): -0.399
- glycan array binding signal (z-score) (Gal(b1-3)GalNAc): -0.382
- glycan array binding signal (z-score) [16]: -0.446
- glycan array binding signal (z-score) [17]: -0.447
- glycan array binding signal (z-score) (Gal(b1-3)GalNAc(b1-3)Gal): -0.343
- glycan array binding signal (z-score) [18]: 2.55
- glycan array binding signal (z-score) [19]: -0.247
- glycan array binding signal (z-score) [20]: 2.41
- glycan array binding signal (z-score) (Gal(b1-3)GlcNAc): -0.433
- glycan array binding signal (z-score) [21]: -0.444
- glycan array binding signal (z-score) [22]: -0.426
- glycan array binding signal (z-score) (Gal(b1-3)GlcNAc(b1-2)Man): -0.429
- glycan array binding signal (z-score) [23]: -0.407
